# Measurements: ChEMBL document CHEMBL4888484, “Replenishing the malaria drug discovery pipeline: Screening and hit evaluation of the MMV Hit Generation Library 1 (HGL1) against asexual blood stage Plasmodium falciparum ,using a nano luciferase reporter read-out” (2022)
# In all, about 150,000 compounds went through this assay and about 540 (0.36%) showed an effect of 50% or more. Some of the results follow.
# System: Plasmodium falciparum
# Assay: Primary screen in NF54 nanoGlo assay, in single point, at 2uM, 72h; a lower Z score goes with more inhibition
# Assay type: functional, Erythrocyte
# Settings: timepoint 72 hour
Structure (SMILES),% Inhibition [%],Z score
Cc1ncsc1C(=O)N1CCN(C(=O)C2CCC2)[C@@H]2CS(=O)(=O)C[C@@H]21,-18,1.98
CCc1c(C(=O)N[C@H]2Cc3cccnc3NC2=O)ccn1C,10,-1.13
O=C(CCn1nnc2ccccc21)NC[C@@H](c1ccc(F)cc1)N1CCCC1,-1,0.17
Cc1n[nH]c(C2CC2)c1C(=O)NCc1csc(N)n1,-13,2.35
Cc1ccc(S(=O)(=O)c2c(C)cc(-c3ccccc3)nc2N2CCOCC2)cc1,39,-4.97
COc1ccc2oc(-c3cccc(NC(=O)c4cccs4)c3)nc2c1,-8,0.94
O=C(c1cnoc1-c1ccccc1)N1C[C@@H]2CC[C@H]1CN(C1CCOCC1)C2,-8,1.41
COc1ccc(CC(=O)Nc2ccc(OC)c(N3CCCN(Cc4ccc(OC)cc4)C3=O)c2)cc1,11,-2.14
CC1(C)C[C@@H](NC(=O)c2ocnc2-c2ccccc2)CCS1(=O)=O,-1,0.17
Cc1nc(CN(C)Cc2cn3ccccc3c2C#N)cs1,-13,1.35
CC1(C)CC(N2C(=O)CCC2CCNCCOc2ccc(F)cc2)CCO1 (stereo not drawn),-7,0.94
COCCn1c(N)c(C(=O)CN(C)CCOc2ccc(Br)cc2)c(=O)[nH]c1=O,-12,1.69
CCc1cc(-c2cccc(C(=O)NCc3n[nH]c(N)n3)c2)nc(N(C)C)n1,-1,0.08
O=C(c1ccc(OC2CCOCC2)cc1)N1CC[C@H](n2cccn2)C1,-14,1.58
CCOc1ccc(NC(=O)c2cccn2-c2cccnc2)cc1,-17,1.72
COC(=O)[C@@H](OC(=O)c1cc(C)no1)C1CC1,-7,0.63
CC(C)C[C@](C)(NCCOc1ccccc1F)C(N)=O,-4,0.53
CN(CC(=O)Nc1ccccc1Cl)CC(=O)Nc1ccccc1Cc1ccccc1,5,-0.87
c1cc(-c2nc(-c3cnccn3)no2)cc(-n2cncn2)c1,-16,1.78
CC(C)c1csc([C@@H]2CC(=O)Nc3cc(N4CCCC4=O)ccc32)n1,-13,1.82
CC(C)(C)OC(=O)NC[C@H]1CCCN1CC(F)F,-5,0.95

Structure (SMILES),% Inhibition [%],Z score
COc1cc2c(cc1CNC(=O)Nc1cnn(C)c1C)CCC2,-5,0.69
CCOC(=O)c1c(C)c(CCC(=O)N2CCN(c3ccccn3)CC2)c(C)n1C,-7,1.27
CCc1nnc(NCC[C@@H]2C(=O)Nc3ccccc32)nc1CC,-18,1.81
O=C(Nc1ccc(CN2CCOCC2)cc1)C(c1ccccc1)c1ccccc1,0,0.07
CCCc1[nH]nc(-c2ccc(C(F)(F)F)cc2)c1NC(=O)c1ccccc1OC,0,-0.01
O=C(c1cc(C2CC2)nc2ccccc12)N1CCOC[C@@H](O)C1,2,-0.23
C[C@@H](c1ccccn1)N1CCOC(C)(C)C1,-9,1.24
Cc1nc(CNC(=O)c2nc3ccccc3[nH]c2=O)cs1,5,-0.75
O=S1(=O)CCC(Nc2ccc(F)cc2S(=O)(=O)C(F)(F)F)CC1,2,-0.18
COc1cc2c(cc1OC)CC(=O)N(CC(=O)N[C@H]1CC(=O)N(C(C)(C)C)C1)C=C2,1,-0.19
Cc1ccc([C@H](C)NC(=O)CN2C(=O)C3(CCNCC3)Nc3ccccc32)cc1,-3,0.42
OC[C@H]1CCCN(CCNCc2ccc(F)c(F)c2)C1,-8,1.44
O=C(Cn1ccccc1=O)N[C@H]1COCC[C@@H]1Oc1ccc(CO)cc1,-7,0.9
C[C@H](O)CNc1cncc(OC2CCCCC2)n1,-11,2.14
Cc1nc(CC(=O)N2Cc3[nH]c4ccccc4c3C[C@H]2C(=O)O)cs1,-23,2.04
C[C@H]1CN(C(=O)c2ncccc2O)C(C)(C)CO1,-7,1.25
Fc1ccc(F)c(CN2CC[C@H](c3nn[nH]n3)C2)c1,-7,1.17
Cc1cc(C(=O)N2CCC[C@@H](NC(=O)c3cc(C#N)ccn3)C2)on1,-11,1.46
CN1CCN(Cc2noc([C@H]3CCOC(C)(C)C3)n2)CC1,-8,1.57
Cc1ncsc1C(=O)N(Cc1ccccn1)c1ccc(F)cc1,6,-0.67
C[C@@H]1CN(C(=O)c2ccc(C(N)=O)cc2)C[C@H](C)N1C,-5,0.93

Structure (SMILES),% Inhibition [%],Z score
Cc1cc(N)nc(C)c1-c1cccc(C(=O)NCCc2ncnn2C)c1,-10,1.46
CCn1ccnc1C(=O)NC[C@H]1CCOc2ccccc21,4,-0.76
COc1ccc(C(=O)c2cnc3ccc(F)cc3c2N2CCN(Cc3ccccc3)CC2)cc1,-3,0.43
COc1ccc(CN2C(=O)N(Cc3ccc(F)cc3Cl)c3ccccc3S2(=O)=O)cc1,-1,0.13
COc1ccc(CN2CC[C@H]2C(=O)Nc2ncn(C(C)C)n2)cc1,-7,1.25
OC1CCN(c2nc3cc(F)ccc3cc2CNC[C@H]2CCCO2)CC1,-6,1.23
CNc1nc(CN(C)C[C@H]2COCCO2)cs1,-14,1.74
CCNC(=O)c1nn(Cc2ccccc2)c2c1C[C@@H](N1CCN(C)CC1)CC2,0,-0.05
CCc1cc2c3c([nH]c2cc1S(=O)(=O)NCc1ccc(C)cc1)CCCC3=O,-7,1.34
Cc1ccc(C(=O)O)c(N2CCC[C@H](C#N)C2)n1,-18,2.66
O=C1N(CCc2ccccc2)CCC[C@@]1(O)CNC1CCCCC1,-11,1.71
COc1cc(C(=O)NCC2CCN(Cc3ncc[nH]3)CC2)ccn1,-4,0.75
Cc1ccccc1CC(=O)N[C@@H](CCO)C(C)(C)C,-10,1.32
Cc1nc2c(s1)CN([C@H](C#N)c1cccs1)CC2,-7,0.96
Cc1nc(C(=O)NCC(C)(C)O)cs1,-8,1.5
CN(C)C(=O)[C@@H]1C[C@@H](Oc2ccncc2)CN1Cc1cccnc1,-5,0.71
COC(=O)c1cnc(NCCc2c[nH]c3ccccc23)c(S(=O)(=O)N2CCOCC2)c1,4,-0.73
CCCN1CCN(Cc2nccn2CC)[C@H]2CS(=O)(=O)C[C@H]21,-8,0.74
CCCCc1ccc(N(C)C(=O)CCN)cc1,-9,1.12
COc1ccc(NC(=O)CCn2ccccc2=O)cc1OC(F)F,0,-0.01
CCOC(=O)N1CCC2(CC1)C[C@@H](c1ccccc1)C(=O)N(CC)C2,-16,2.85

Structure (SMILES),% Inhibition [%],Z score
COC(=O)[C@@H]1CCCN1C(=O)C(c1ccccc1)c1ccccc1,4,-0.54
Cc1nc(C)c([C@H](C)NC(=O)NC2CCC(O)CC2)s1 (stereo partly drawn),-7,0.87
Cc1nc(NC(=O)NC2CC2c2ccccc2)oc1C (stereo not drawn),4,-0.56
Cc1cc(C)n(CCC(=O)NCCc2nc(-c3cccnc3)n[nH]2)c(=O)n1,-8,1.45
C[C@@H](Cc1cnccn1)Nc1nc(C2CCCC2)nc2c1CNC2,-8,1.5
Cc1ccnc([C@@H](NC(=O)c2cccn2C2CC2)C2CC2)c1,-5,0.7
Cc1cccc(-n2cc(-c3ccccc3)nc2NC(=O)CN(C[C@H]2CCCO2)C(=O)c2ccccc2C)c1,-5,0.67
COC(=O)[C@H](C)N1CCN(CC2CC2)CC1,2,-0.26
Cc1cc(C(=O)N2CC[S@@+]([O-])C(C)(C)C2)oc1C,-3,0.46
COc1ccc(Nc2nc(N3CCOCC3)nc(N3CCC(C)CC3)n2)cc1,16,-2.17
CCOc1ccc(Cl)cc1CN(C)c1cc(C2CC(O)C2)nc(N)n1 (stereo not drawn),-11,1.46
COc1cc(-c2ccc(-c3cn[nH]c3)cc2)ccc1O,-8,1.16
CCn1cc(S(=O)(=O)N(C)Cc2noc(C3CC3)n2)cn1,-9,1.01
Cc1cccc(CN2CC(N(Cc3cccnc3)S(C)(=O)=O)C2)c1,-1,0.12
CCOCCOc1nc(-c2ccc3c(c2)OCO3)n(-c2ccc(NC(=O)c3c(OC)cccc3OC)cc2)n1,4,-0.63
CN(C)C(=O)c1ccccc1CCCOCc1ccccc1,-1,0.2
O=C(c1nnn2c1c(=O)[nH]c1cc(F)ccc12)N1CCCCCC1,0,-0.07
CC1CCC(N2CC(=O)N(CCN3CCOCC3)[C@@H](c3cccnc3)C2=O)CC1 (stereo partly drawn),33,-3.78
CC(=O)c1ccc2c(c1)N(Cc1ccc(C(=O)NCc3ccccc3)o1)C(=O)CO2,0,-0.02
C[C@@H](C(=O)NCc1ccc2c(c1)OCO2)n1cccn1,-5,0.86
CC(C)C(=O)N1CCC[C@H](NS(=O)(=O)c2ccnn2C(C)C)C1,-2,0.31
